Laboratory results: PMC12820563
The list shows a part of the results. The list includes weakly bound sequences.

target: T1, MBP-FoxP3dN (UniProt Q99JB6); assay: PD-seq (MBP pull-down with sequencing); details: 20 mM Tris-HCl pH 7.5, 100 mM NaCl, 1.5 mM MgCl2, 0.4 uM protein, 0.1 uM dsDNA library, 30 min, room temperature, amylose pull-down; high values mean tight binding; double strand, one strand shown
T1 sequence: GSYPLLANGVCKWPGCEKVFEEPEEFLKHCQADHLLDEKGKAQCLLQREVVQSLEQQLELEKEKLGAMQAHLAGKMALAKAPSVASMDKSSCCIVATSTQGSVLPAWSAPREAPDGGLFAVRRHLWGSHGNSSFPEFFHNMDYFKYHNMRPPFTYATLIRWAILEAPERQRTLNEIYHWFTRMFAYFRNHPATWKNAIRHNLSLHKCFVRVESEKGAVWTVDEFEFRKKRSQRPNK

| Sequence | binding signal (RPM ratio (pull-down/input)) |
| --- | --- |
| GATGATTGTTCTCCCAGCTGATGAATTAACCTGGTCGAGTAAACAAATTTTCCTAATCTTTCTGTTCAAGCGCCATCTAC | 0.183 |
| GATGATTGTTCTCCCAGCTGATGAATTCGCGGGTTCGAGTAAACAAATTTTCCTAATCTTTCTGTTCAAGCGCCATCTAC | 0.413 |
| GATGATTGTTCTCCCAGCTGATGAATTAGCAGCATCGAGTAAACAAATTTTCCTAATCTTTCTGTTCAAGCGCCATCTAC | 1.01 |
| GATGATTGTTCTCCCAGCTGATGAATTTGCCTCGTCGAGTAAACAAATTTTCCTAATCTTTCTGTTCAAGCGCCATCTAC | 1.07 |
| GATGATTGTTCTCCCAGCTGATGAATTACGTGATTCGAGTAAACAAATTTTCCTAATCTTTCTGTTCAAGCGCCATCTAC | 0.839 |
| GATGATTGTTCTCCCAGCTGATGAATTGATAAGCTCGAGTAAACAAATTTTCCTAATCTTTCTGTTCAAGCGCCATCTAC | 0.4 |
| GATGATTGTTCTCCCAGCTGATGAATTGCGTACATCGAGTAAACAAATTTTCCTAATCTTTCTGTTCAAGCGCCATCTAC | 1.28 |
| GATGATTGTTCTCCCAGCTGATGAATTGATTGTTTCGAGTAAACAAATTTTCCTAATCTTTCTGTTCAAGCGCCATCTAC | 3.39 |
| GATGATTGTTCTCCCAGCTGATGAATTGGTCATTTCGAGTAAACAAATTTTCCTAATCTTTCTGTTCAAGCGCCATCTAC | 0.806 |
| GATGATTGTTCTCCCAGCTGATGAATTATTAACTTCGAGTAAACAAATTTTCCTAATCTTTCTGTTCAAGCGCCATCTAC | 0.386 |
| GATGATTGTTCTCCCAGCTGATGAATTGAACTACTCGAGTAAACAAATTTTCCTAATCTTTCTGTTCAAGCGCCATCTAC | 0.357 |
| GATGATTGTTCTCCCAGCTGATGAATTGGAACGTTCGAGTAAACAAATTTTCCTAATCTTTCTGTTCAAGCGCCATCTAC | 0.31 |
| GATGATTGTTCTCCCAGCTGATGAATTCATAGTATCGAGTAAACAAATTTTCCTAATCTTTCTGTTCAAGCGCCATCTAC | 0.783 |
| GATGATTGTTCTCCCAGCTGATGAATTCTGGTGGTCGAGTAAACAAATTTTCCTAATCTTTCTGTTCAAGCGCCATCTAC | 0.43 |
| GATGATTGTTCTCCCAGCTGATGAATTACACAAGTCGAGTAAACAAATTTTCCTAATCTTTCTGTTCAAGCGCCATCTAC | 0.533 |
| GATGATTGTTCTCCCAGCTGATGAATTCCTCTTCTCGAGTAAACAAATTTTCCTAATCTTTCTGTTCAAGCGCCATCTAC | 0.253 |
| GATGATTGTTCTCCCAGCTGATGAATTAGATCAGTCGAGTAAACAAATTTTCCTAATCTTTCTGTTCAAGCGCCATCTAC | 0.286 |
| GATGATTGTTCTCCCAGCTGATGAATTCGGCTGATCGAGTAAACAAATTTTCCTAATCTTTCTGTTCAAGCGCCATCTAC | 0.447 |
| GATGATTGTTCTCCCAGCTGATGAATTCTGAAGATCGAGTAAACAAATTTTCCTAATCTTTCTGTTCAAGCGCCATCTAC | 0.204 |
| GATGATTGTTCTCCCAGCTGATGAATTCTGTAGCTCGAGTAAACAAATTTTCCTAATCTTTCTGTTCAAGCGCCATCTAC | 1.62 |
| GATGATTGTTCTCCCAGCTGATGAATTGGCCCAGTCGAGTAAACAAATTTTCCTAATCTTTCTGTTCAAGCGCCATCTAC | 0.22 |

| Sequence | binding signal (RPM ratio (pull-down/input)) |
| --- | --- |
| GATGATTGTTCTCCCAGCTGATGAATTCATTGCGTCGAGTAAACAAATTTTCCTAATCTTTCTGTTCAAGCGCCATCTAC | 1.03 |
| GATGATTGTTCTCCCAGCTGATGAATTTGGAGATTCGAGTAAACAAATTTTCCTAATCTTTCTGTTCAAGCGCCATCTAC | 0.391 |
| GATGATTGTTCTCCCAGCTGATGAATTGCTTTGGTCGAGTAAACAAATTTTCCTAATCTTTCTGTTCAAGCGCCATCTAC | 1.08 |
| GATGATTGTTCTCCCAGCTGATGAATTTTTAGACTCGAGTAAACAAATTTTCCTAATCTTTCTGTTCAAGCGCCATCTAC | 0.25 |
| GATGATTGTTCTCCCAGCTGATGAATTTGTGCAGTCGAGTAAACAAATTTTCCTAATCTTTCTGTTCAAGCGCCATCTAC | 1.42 |
| GATGATTGTTCTCCCAGCTGATGAATTTCCGGTATCGAGTAAACAAATTTTCCTAATCTTTCTGTTCAAGCGCCATCTAC | 0.44 |
| GATGATTGTTCTCCCAGCTGATGAATTGCCGGGTTCGAGTAAACAAATTTTCCTAATCTTTCTGTTCAAGCGCCATCTAC | 0.504 |
| GATGATTGTTCTCCCAGCTGATGAATTCTATCTCTCGAGTAAACAAATTTTCCTAATCTTTCTGTTCAAGCGCCATCTAC | 0.512 |
| GATGATTGTTCTCCCAGCTGATGAATTGTTTTGGTCGAGTAAACAAATTTTCCTAATCTTTCTGTTCAAGCGCCATCTAC | 3.65 |
| GATGATTGTTCTCCCAGCTGATGAATTAGTAGAGTCGAGTAAACAAATTTTCCTAATCTTTCTGTTCAAGCGCCATCTAC | 0.5 |
| GATGATTGTTCTCCCAGCTGATGAATTAGAATATTCGAGTAAACAAATTTTCCTAATCTTTCTGTTCAAGCGCCATCTAC | 0.473 |
| GATGATTGTTCTCCCAGCTGATGAATTATCGAATTCGAGTAAACAAATTTTCCTAATCTTTCTGTTCAAGCGCCATCTAC | 0.746 |
| GATGATTGTTCTCCCAGCTGATGAATTCGCCTTCTCGAGTAAACAAATTTTCCTAATCTTTCTGTTCAAGCGCCATCTAC | 1.49 |
| GATGATTGTTCTCCCAGCTGATGAATTGTAAATTTCGAGTAAACAAATTTTCCTAATCTTTCTGTTCAAGCGCCATCTAC | 0.529 |
| GATGATTGTTCTCCCAGCTGATGAATTAACATGATCGAGTAAACAAATTTTCCTAATCTTTCTGTTCAAGCGCCATCTAC | 0.33 |
| GATGATTGTTCTCCCAGCTGATGAATTTTCCACGTCGAGTAAACAAATTTTCCTAATCTTTCTGTTCAAGCGCCATCTAC | 0.233 |
| GATGATTGTTCTCCCAGCTGATGAATTAGTGAAGTCGAGTAAACAAATTTTCCTAATCTTTCTGTTCAAGCGCCATCTAC | 0.331 |
| GATGATTGTTCTCCCAGCTGATGAATTTTGCATATCGAGTAAACAAATTTTCCTAATCTTTCTGTTCAAGCGCCATCTAC | 4.31 |
| GATGATTGTTCTCCCAGCTGATGAATTCCTGAATTCGAGTAAACAAATTTTCCTAATCTTTCTGTTCAAGCGCCATCTAC | 0.481 |
| GATGATTGTTCTCCCAGCTGATGAATTGCGGTCGTCGAGTAAACAAATTTTCCTAATCTTTCTGTTCAAGCGCCATCTAC | 0.848 |
| GATGATTGTTCTCCCAGCTGATGAATTTTCCACTTCGAGTAAACAAATTTTCCTAATCTTTCTGTTCAAGCGCCATCTAC | 0.262 |

| Sequence | binding signal (RPM ratio (pull-down/input)) |
| --- | --- |
| GATGATTGTTCTCCCAGCTGATGAATTGTTTGATTCGAGTAAACAAATTTTCCTAATCTTTCTGTTCAAGCGCCATCTAC | 2.06 |
| GATGATTGTTCTCCCAGCTGATGAATTAATTCCTTCGAGTAAACAAATTTTCCTAATCTTTCTGTTCAAGCGCCATCTAC | 0.32 |
| GATGATTGTTCTCCCAGCTGATGAATTACAGGGGTCGAGTAAACAAATTTTCCTAATCTTTCTGTTCAAGCGCCATCTAC | 0.438 |
| GATGATTGTTCTCCCAGCTGATGAATTACGACCTTCGAGTAAACAAATTTTCCTAATCTTTCTGTTCAAGCGCCATCTAC | 0.433 |
| GATGATTGTTCTCCCAGCTGATGAATTGAACGGATCGAGTAAACAAATTTTCCTAATCTTTCTGTTCAAGCGCCATCTAC | 0.215 |
| GATGATTGTTCTCCCAGCTGATGAATTACACTAATCGAGTAAACAAATTTTCCTAATCTTTCTGTTCAAGCGCCATCTAC | 0.496 |
| GATGATTGTTCTCCCAGCTGATGAATTATCATAATCGAGTAAACAAATTTTCCTAATCTTTCTGTTCAAGCGCCATCTAC | 0.491 |
| GATGATTGTTCTCCCAGCTGATGAATTACTTCTCTCGAGTAAACAAATTTTCCTAATCTTTCTGTTCAAGCGCCATCTAC | 0.235 |
| GATGATTGTTCTCCCAGCTGATGAATTACGCTCGTCGAGTAAACAAATTTTCCTAATCTTTCTGTTCAAGCGCCATCTAC | 0.801 |
| GATGATTGTTCTCCCAGCTGATGAATTCTATTCCTCGAGTAAACAAATTTTCCTAATCTTTCTGTTCAAGCGCCATCTAC | 0.571 |
| GATGATTGTTCTCCCAGCTGATGAATTCACTCGGTCGAGTAAACAAATTTTCCTAATCTTTCTGTTCAAGCGCCATCTAC | 0.251 |
| GATGATTGTTCTCCCAGCTGATGAATTATTTCCGTCGAGTAAACAAATTTTCCTAATCTTTCTGTTCAAGCGCCATCTAC | 0.296 |
| GATGATTGTTCTCCCAGCTGATGAATTCCGTCCTTCGAGTAAACAAATTTTCCTAATCTTTCTGTTCAAGCGCCATCTAC | 0.472 |
| GATGATTGTTCTCCCAGCTGATGAATTTTGGTTGTCGAGTAAACAAATTTTCCTAATCTTTCTGTTCAAGCGCCATCTAC | 2.04 |
| GATGATTGTTCTCCCAGCTGATGAATTAAACTGTTCGAGTAAACAAATTTTCCTAATCTTTCTGTTCAAGCGCCATCTAC | 0.398 |
| GATGATTGTTCTCCCAGCTGATGAATTGGTTAAATCGAGTAAACAAATTTTCCTAATCTTTCTGTTCAAGCGCCATCTAC | 0.261 |
| GATGATTGTTCTCCCAGCTGATGAATTGTTGTGCTCGAGTAAACAAATTTTCCTAATCTTTCTGTTCAAGCGCCATCTAC | 5.43 |
| GATGATTGTTCTCCCAGCTGATGAATTTGTAAACTCGAGTAAACAAATTTTCCTAATCTTTCTGTTCAAGCGCCATCTAC | 2 |
| GATGATTGTTCTCCCAGCTGATGAATTCTCTGCATCGAGTAAACAAATTTTCCTAATCTTTCTGTTCAAGCGCCATCTAC | 0.793 |
| GATGATTGTTCTCCCAGCTGATGAATTTTACTCTTCGAGTAAACAAATTTTCCTAATCTTTCTGTTCAAGCGCCATCTAC | 0.271 |
| GATGATTGTTCTCCCAGCTGATGAATTATCGCAGTCGAGTAAACAAATTTTCCTAATCTTTCTGTTCAAGCGCCATCTAC | 0.564 |
